The series relates to ATP. The series is described as follows: switch fluorescence ratio, 500 uM ATP over buffer (Cy3 cluster intensity, sum of 5 cycles each) (fold (ratio)); higher = stronger signal-on switching upon ATP binding; sequences stand for … in TCGTCGGCAGCGTCAGATGTGTATAAGAGACAGTTTTTTTTTTTTTTTTTTTTTTTTT…TC. The following applies: aptamer strand: ATP DNA aptamer (quencher-CACCTGGGGGAGTATTGCGGAGGAAGG + anchor), 100 nM annealed; ATP concentration: 500 uM; one replicate. Summed up:
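Imaging in selection buffer was followed by imaging after 15 min with 500 uM ATP at 22 °C, for Cy3-labelled switching-strand clusters annealed to 100 nM quencher-labelled ATP aptamer on a modified Illumina MiSeq flow-cell. Five of these buffer/ATP cycles ran, separated by NaOH stripping and re-annealing. The fluorescence ratio per cluster is summed target-cycle over summed buffer-cycle Cy3 intensity, averaged per switch-domain sequence; clusters outside 100-1000 RFU were removed.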

Values marked as one replicate rest on one cluster of the flow cell; about a third of the high ones do not repeat.
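Note: ATP exposure 15 min at 22 °C before imaging.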

On to ACAGGGTTCG, for which the switch fluorescence ratio came out at 1.01.

For ATTACAATGT, the switch fluorescence ratio stood at 1.03.

As for GCCGAGCGG, the switch fluorescence ratio was found to be 1.01.

Regarding AGTTTTGTAC, the switch fluorescence ratio worked out at 1.29.

As to GCGCTCAGGG, the switch fluorescence ratio is 1.03.

Regarding TGCAGGTTTA, the switch fluorescence ratio amounted to 0.976.

Consider CGAATCTGCG, for which the switch fluorescence ratio turned out to be 0.99.

Take GTTTGCGAAA: the switch fluorescence ratio was determined as 1.

As for ATCATTTCTT, the switch fluorescence ratio was found to be 1.02.

Take CCGAATTAAC: the switch fluorescence ratio was 2.46.

Consider ACTTTCGAGA, for which the switch fluorescence ratio worked out at 1.03.

As for CATTGATTTG, the switch fluorescence ratio was 1.01.

Take GTATGATCGC: the switch fluorescence ratio amounted to 1.02.

Take GGCCCAATAG: the switch fluorescence ratio was determined as 1.96.

In the case of TTCTCTCCCG, the switch fluorescence ratio amounted to 1.11.

As for TAAAGATTAA, the switch fluorescence ratio is 1.04.

As to GACCTAACAC, the switch fluorescence ratio was 1.15.

Regarding TCCTGTAGTA, the switch fluorescence ratio worked out at 1.03.

Regarding TATCTTGTA, the switch fluorescence ratio was 1.04.

For CCCCATAGGT, the switch fluorescence ratio was found to be 1.51.

GCAGCGATTG: the switch fluorescence ratio worked out at 1.34.

Regarding TCACTGGCTA, the switch fluorescence ratio amounted to 1.01.

As to TTGAGCACCA, the switch fluorescence ratio was 1.05.

As for ACAATTCGGC, the switch fluorescence ratio was determined as 0.928.

With TCAAAATACC, the switch fluorescence ratio came out at 1.01.

Take CGCAGCAGCA: the switch fluorescence ratio was 1.59.

For the sequence ATGAAATCGT, the switch fluorescence ratio came to 1.04.

ATCTTGTAGC: the switch fluorescence ratio was found to be 0.992.

On to TAAAGAGCCG, for which the switch fluorescence ratio was found to be 0.989.

For TAGAATTCGA, the switch fluorescence ratio is 1.05.

As for CCTTAATAGT, the switch fluorescence ratio was found to be 1.01.

Regarding TGGTTCCAAG, the switch fluorescence ratio was 1.84.

As for GATAGTATAT, the switch fluorescence ratio was 1.

As to CTCCCGAGGG, the switch fluorescence ratio is 1.01.

For the sequence CTGTTCTGGA, the switch fluorescence ratio stood at 1.

On to CCGGCATATG, for which the switch fluorescence ratio amounted to 1.06.

As for ACGTGAATGT, the switch fluorescence ratio was determined as 1.04.

Regarding GAGATTAGTG, the switch fluorescence ratio stood at 0.992.

Take TGATGGGTA: the switch fluorescence ratio was found to be 1.02.

CTTGTTAGT: the switch fluorescence ratio amounted to 0.981.

Turning to ATTGTATACT, the switch fluorescence ratio was 1.03.

For the sequence TGATACATGA, the switch fluorescence ratio stood at 1.03.

Consider CAATATGTAA, for which the switch fluorescence ratio was 0.978.

Regarding GGGCAGAGTG, the switch fluorescence ratio came to 1.03.

As for CAAATGTGAA, the switch fluorescence ratio turned out to be 0.98.

Turning to GTGGGACCGT, the switch fluorescence ratio was found to be 1.02.

With CTATGACCCG, the switch fluorescence ratio was 1.03.

GCATGCATTA: the switch fluorescence ratio is 1.03.

Regarding TCGCGCTAAT, the switch fluorescence ratio was 1.19.

In the case of AAGCTCTAGC, the switch fluorescence ratio came out at 1.06.

For the sequence ACAGGACCAC, the switch fluorescence ratio came to 1.13.

Turning to AGGGCATAAA, the switch fluorescence ratio is 1.02.

TTTAGAAT: the switch fluorescence ratio turned out to be 0.985.

As for GCTATCTGAG, the switch fluorescence ratio is 1.04.

For the sequence GAAGTAAACC, the switch fluorescence ratio was found to be 1.1.

CAAAGTCCGC: the switch fluorescence ratio worked out at 1.28.

TCGTCTTGGC: the switch fluorescence ratio was found to be 0.982.

With TATCCGTGGT, the switch fluorescence ratio is 1.01.

Turning to CGCCAGGATC, the switch fluorescence ratio was determined as 0.954.

Turning to GTTGTTCCCG, the switch fluorescence ratio was determined as 1.04.

Take ATATTCAAGC: the switch fluorescence ratio came out at 0.99.

Turning to GAAACTTTGA, the switch fluorescence ratio is 0.952.

As for CGGTCGTTTT, the switch fluorescence ratio was found to be 1.01.

With TCGAATTATT, the switch fluorescence ratio was found to be 0.964.

Take GGATCTGCTG: the switch fluorescence ratio was determined as 0.982.

For the sequence CCCCCGTTAT, the switch fluorescence ratio is 2.42.

Turning to TTCCCAAGCG, the switch fluorescence ratio was 1.03.

For GACTAACCCG, the switch fluorescence ratio came to 1.11.

Consider CGAGCGGGT, for which the switch fluorescence ratio was found to be 1.05.

Turning to TGTGTCTGCA, the switch fluorescence ratio came out at 1.

For the sequence GCAGCGAAAG, the switch fluorescence ratio is 1.06.

Consider TGAATAAGGG, for which the switch fluorescence ratio is 1.06.

Turning to GATAACAACC, the switch fluorescence ratio amounted to 1.04.

For the sequence TCATAATGAG, the switch fluorescence ratio amounted to 0.993.

Consider ATCTGTATTG, for which the switch fluorescence ratio worked out at 0.957.

On to AGTTGCATAC, for which the switch fluorescence ratio amounted to 1.35.

For TCCTTATCAT, the switch fluorescence ratio is 1.02.

Consider TCTTGTAGT, for which the switch fluorescence ratio was determined as 1.03.

For AGGGGGTTCA, the switch fluorescence ratio was 1.02.

As for TCATGACTGT, the switch fluorescence ratio worked out at 0.995.

On to CAACTGGAAA, for which the switch fluorescence ratio was 0.993.

With GGTTGCGACA, the switch fluorescence ratio stood at 0.99.

Turning to AGGTGTTTGG, the switch fluorescence ratio amounted to 1.03.

Take TTTTCGTCAT: the switch fluorescence ratio was 0.928.

For AAGAGCTATT, the switch fluorescence ratio is 0.95.

On to ACAATATGTT, for which the switch fluorescence ratio came to 1.09.

As to GTCGTTTCCT, the switch fluorescence ratio worked out at 1.01.

For the sequence AGTCAATCTG, the switch fluorescence ratio amounted to 0.931.

With GTAAAGACGC, the switch fluorescence ratio came to 1.04.

Consider GGGGCTGAAC, for which the switch fluorescence ratio was found to be 1.04.

For the sequence TATTAGACCA, the switch fluorescence ratio came out at 1.06.

As to CTGGGGCAGG, the switch fluorescence ratio amounted to 1.1.

Turning to CATTTATGCT, the switch fluorescence ratio was found to be 1.01.

Take TAAGAGAACG: the switch fluorescence ratio turned out to be 0.956.

ATCACATGTT: the switch fluorescence ratio amounted to 0.974.

Turning to TATGCTGAGC, the switch fluorescence ratio came out at 0.988.

For the sequence ATGTCTACGT, the switch fluorescence ratio was determined as 1.02.

As to ATATTATGTG, the switch fluorescence ratio was found to be 1.

On to CCACAGTTTG, for which the switch fluorescence ratio was 1.02.

Regarding AAAACTCGAC, the switch fluorescence ratio is 1.12.

GCACCGCTTG: the switch fluorescence ratio was 1.

For the sequence TGGTTTCACG, the switch fluorescence ratio was 0.967.

With ACGCCTTACC, the switch fluorescence ratio worked out at 1.66.

On to GGTCCGCAAG, for which the switch fluorescence ratio is 4.5.

In the case of TCCCCGGTA, the switch fluorescence ratio was 1.49.

For TCCTTATCTA, the switch fluorescence ratio is 0.999.

Turning to GTGTCAATGG, the switch fluorescence ratio stood at 1.05.

As for TTACGACACA, the switch fluorescence ratio is 1.41.

Regarding ATCGCAAATA, the switch fluorescence ratio came out at 1.83.

GCAACCCCAC: the switch fluorescence ratio was found to be 1.28.

TCCGAGCCGC: the switch fluorescence ratio is 1.52.

Take GGCATAATAG: the switch fluorescence ratio amounted to 1.06.

For the sequence GCGATGATCG, the switch fluorescence ratio came out at 0.979.

As for ACTAATAGAG, the switch fluorescence ratio stood at 0.999.

For GATCACGATC, the switch fluorescence ratio worked out at 1.

TCATGAGGCA: the switch fluorescence ratio worked out at 1.03.

Take CTATCATGGA: the switch fluorescence ratio stood at 0.948.

On to CGTACTCAAG, for which the switch fluorescence ratio was found to be 1.02.

Consider GGCTTAATTA, for which the switch fluorescence ratio is 1.

Turning to AGGAACACGA, the switch fluorescence ratio turned out to be 1.03.

The values above are taken from the supplement of paper PMC10126150.
